Measurements taken from ChEMBL document CHEMBL4888484, “Replenishing the malaria drug discovery pipeline: Screening and hit evaluation of the MMV Hit Generation Library 1 (HGL1) against asexual blood stage Plasmodium falciparum ,using a nano luciferase reporter read-out” (2022).
Hit rate of the full screen: of about 150,000 compounds, about 540 (0.36%) showed an effect of 50% or more. This is one part of the list.

The compounds below were run on Plasmodium falciparum (assay: Primary screen in NF54 nanoGlo assay, in single point, at 2uM, 72h; a lower Z score goes with more inhibition). Details: timepoint 72 hour.
Format: functional, Erythrocyte
For `C[C@H](c1noc(Cc2ccc(O)cc2)n1)C1CC1`, the “% Inhibition” value was 1% and the Z score was -0.21.
`CCc1cc(=O)c2cc(NS(=O)(=O)C[C@H]3CCCO3)ccc2[nH]1` was tested, and the “% Inhibition” value was -10% and the Z score was 1.91.
`COC(OC)C(=O)N1CCN(Cc2cnc3ccccc3c2)CC1` was tested, and the “% Inhibition” value was -7% and the Z score was 0.94.
In the case of `CC(C)(C)c1cnc(CNC(=O)Nc2ccnn2C2CCCCC2)o1`, the “% Inhibition” value was -6% and the Z score was 0.96.
With `COc1ccc(/C=C/CN2CCCn3nc(CO)cc3C2)cc1` the “% Inhibition” value was 4% and the Z score was -0.56.
With `Cc1csc(Nc2cccc(NS(=O)(=O)c3ccc(F)c4ncccc34)c2)n1` the “% Inhibition” value was -15% and the Z score was 1.54.
`CN1CCN(c2ncccc2CNC(=O)CN2C(=O)NC(=O)C2(C)C)CC1` was tested, and the “% Inhibition” value was 6% and the Z score was -0.74.
`CC(=O)Nc1cc(C)nc(C)c1OC(C)=O` was tested, and the “% Inhibition” value was -19% and the Z score was 2.42.
In the case of `COc1cccc(CNCc2ccc(F)cc2)c1OC[C@@H](O)CN1CCOCC1`, the “% Inhibition” value was -2% and the Z score was 0.42.
In the case of `CC(C)Cc1nc(C#N)c(NC[C@@H](c2cccs2)N2CCCCC2)o1`, the “% Inhibition” value was -10% and the Z score was 1.9.
`Cc1nc(-c2cc3c(s2)CCN(C(=O)[C@H](C)n2cccn2)C3)cs1` was tested, and the “% Inhibition” value was -7% and the Z score was 1.21.
In the case of `Cc1nnc(-c2cc(C(C)C)n(-c3ccc(C(=O)NCC(C)(C)C)cc3)n2)o1`, the “% Inhibition” value was -9% and the Z score was 1.27.
`CC1CCC2(CC1)OC[C@@H](C(=O)NCc1ccccc1)N2C(=O)c1ccc(Cl)c(Cl)c1` (stereo partly drawn) was tested, and the “% Inhibition” value was -10% and the Z score was 1.12.
`O=C(Nc1ccccc1Br)[C@H]1CCCN(c2nc3cccnc3s2)C1` was tested, and the “% Inhibition” value was -19% and the Z score was 1.69.
For `COc1ccc(C)cc1NC(=O)c1nn(-c2ccccc2)c2ccccc2c1=O`, the “% Inhibition” value was 26% and the Z score was -2.53.
With `O=C(CCc1nc2ccccc2c(=O)[nH]1)NC1CCCC1` the “% Inhibition” value was -1% and the Z score was 0.11.
In the case of `CC(=O)N1CCc2cc(Br)c(S(=O)(=O)CCC(=O)N3CCC(C)CC3)cc21`, the “% Inhibition” value was -11% and the Z score was 1.04.
For `COc1ncc(NC(=O)c2snnc2C)cn1`, the “% Inhibition” value was -9% and the Z score was 1.7.
In the case of `Cc1cc(COCC(=O)N2Cc3ccccc3CO2)no1`, the “% Inhibition” value was 3% and the Z score was -0.6.
For `Cc1ccc(-c2nc3cc(C)ccn3c2NC(=O)C2CCCCC2)cc1`, the “% Inhibition” value was 1% and the Z score was -0.2.
With `CC(C)CC(=O)Nc1ccc(N2CCN(C(=O)c3cccc(F)c3)CC2)c(C(=O)NCc2ccc(F)cc2)c1` the “% Inhibition” value was -17% and the Z score was 1.48.
For `CC1CN(CCCCC2CCOCC2)CCC1O` (stereo not drawn), the “% Inhibition” value was -11% and the Z score was 1.13.
With `CCCn1nc(C)c(Cn2cc(-c3nccn3C)nn2)c1C` the “% Inhibition” value was -12% and the Z score was 2.29.
In the case of `O=c1ccn(-c2ccccc2)nc1-c1nc(-c2ccccn2)no1`, the “% Inhibition” value was 8% and the Z score was -1.23.
With `CCCn1nc(C)c(CN2C[C@H](C)OC3(CCC3)C2)c1C` the “% Inhibition” value was -8% and the Z score was 1.57.
In the case of `C[C@H]1CN(C)CCN1C(=O)c1ccc(Cn2cncn2)cc1`, the “% Inhibition” value was -4% and the Z score was 0.49.
`Cc1c(S(=O)(=O)Nc2ccccn2)cc(-c2nc(-c3ccc(Cl)cc3)cs2)n1C` was tested, and the “% Inhibition” value was 4% and the Z score was -0.44.
`COCCn1cncc1CNC(=O)[C@@H]1CCc2ccccc21` was tested, and the “% Inhibition” value was -11% and the Z score was 1.85.
For `O=C(NCc1ccsc1)c1cccs1`, the “% Inhibition” value was 0% and the Z score was -0.06.
For `CCc1cnc(C)nc1N1CCC2(CCC(=O)N(CCOC)C2)CC1`, the “% Inhibition” value was 6% and the Z score was -0.87.
With `O=C(c1ccccc1C1CCC1)N1CCN2C(=O)NC[C@H]2C1` the “% Inhibition” value was 0% and the Z score was -0.01.
For `Cc1nc2sccn2c1-c1noc([C@H]2OCC[C@H]2C(C)C)n1`, the “% Inhibition” value was -5% and the Z score was 0.61.
`O=S(=O)(CC12CCC(CC1)C2)N1CCCC[C@H]1c1nnc(C2CCC2)o1` was tested, and the “% Inhibition” value was -19% and the Z score was 2.78.
In the case of `Cc1cc2ccccc2n1CC(=O)NC1CCN(Cc2ccccc2)CC1`, the “% Inhibition” value was -15% and the Z score was 2.18.
In the case of `Cc1cnn(CC(=O)Nc2ccc3oc(-c4cc(F)ccc4Br)nc3c2)c1`, the “% Inhibition” value was -17% and the Z score was 2.23.
For `CC(C)[C@@H]1CN(C)CCN1C(=O)C1=CCCC1`, the “% Inhibition” value was 2% and the Z score was -0.16.
`CC1CN(Cc2nnc(-c3ccco3)o2)C(C)CO1` (stereo not drawn) was tested, and the “% Inhibition” value was 2% and the Z score was -0.33.
`CC(N[C@@H](C)CO)c1cn(C2CN(C(=O)OC(C)(C)C)C2)nn1` (stereo partly drawn) was tested, and the “% Inhibition” value was -2% and the Z score was 0.25.
In the case of `COc1ccc(CNC(=O)COc2ncnc3oc(C)c(C)c23)c(OC)c1`, the “% Inhibition” value was 0% and the Z score was 0.01.
For `CCn1cc(S(=O)(=O)N2CCc3n[nH]c(=O)n3CC2)cn1`, the “% Inhibition” value was 0% and the Z score was -0.05.
For `C[C@@H](c1ccc(-c2ccc(-n3ccnc3)nn2)cc1)N1CCCCC1`, the “% Inhibition” value was -2% and the Z score was 0.36.
In the case of `CC(C)c1ccc2occ(C(=O)N3C[C@@H]4CCC[C@]4(C(N)=O)C3)c2c1`, the “% Inhibition” value was 2% and the Z score was -0.33.
In the case of `O=C(C1CCCC1)N1CCN(c2ccccn2)CC1`, the “% Inhibition” value was -3% and the Z score was 0.54.
For `Cc1cccc(NS(=O)(=O)c2cc(C(=O)NC3CC4CCC3C4)ccc2Cl)c1C` (stereo not drawn), the “% Inhibition” value was -14% and the Z score was 1.74.
In the case of `CCC1CCC(N(C)C(=O)c2ccc3ccccc3n2)CC1` (stereo not drawn), the “% Inhibition” value was 0% and the Z score was 0.01.
For `COc1ccc2cc1OCC(=O)N[C@@H](C)C(=O)N(C)CCCCN(C/C=C/c1ccc(F)cc1)CCCNC(=O)CC2`, the “% Inhibition” value was -16% and the Z score was 1.98.
With `CC(C)(C)Oc1cc(C(=O)N(CC2CC2)c2cccnc2)ccn1` the “% Inhibition” value was -9% and the Z score was 0.77.
`CC(C)CNC(=O)c1coc(CN(Cc2ccc3c(c2)OCO3)Cc2ccccc2C(F)(F)F)n1` was tested, and the “% Inhibition” value was -9% and the Z score was 0.87.
`CCc1nn(C)cc1NC(=O)c1ccc(C(C)C)nc1` was tested, and the “% Inhibition” value was 6% and the Z score was -0.81.
For `CC(C)Oc1ccccc1CN[C@H]1CCN(C2CC2)C1`, the “% Inhibition” value was 9% and the Z score was -1.06.
For `CC1OC(C)C(c2nc(-c3ccc(C(F)F)nc3)no2)C1C` (stereo not drawn), the “% Inhibition” value was -13% and the Z score was 2.04.
In the case of `CC1CCCC(C)N1C(=O)CNc1ccccc1C(=O)NC1CC1` (stereo not drawn), the “% Inhibition” value was 2% and the Z score was -0.26.
With `COc1ccc(C(C)NC2CCC(=O)N(C)C2)cc1Cn1cccn1` (stereo not drawn) the “% Inhibition” value was -13% and the Z score was 1.69.
With `COc1ccc(Cl)cc1-c1noc(C(=O)NCCNC(=O)COc2cccc(C(F)(F)F)c2)n1` the “% Inhibition” value was -15% and the Z score was 1.55.
